Out of some 360,000 compounds screened, about 11,000 (3.1%) were called active. Inconclusive results, whose numbers are uncertain, are shown with a selection of clear calls. Calls come from the whole dose curve; as a rule, active = well fitted inhibition curve with a large enough effect; inconclusive = small, poorly fitted or top-dose-only effect; inactive = no such curve, though single readings can be large or run the other way. Potencies of inconclusive entries are left out as doubtful fits.
Each compound was assayed against Schistosoma mansoni thioredoxin glutathione reductase (TGR) (UniProt Q962Y6) (assay: qHTS Assay for the Inhibitors of Schistosoma Mansoni Peroxiredoxins). Conditions: purified TGR, DTNB reduction, TNB absorbance 405 nm; activity change, negative = inhibition: at 114 µM (top of the series) unless noted.
Method in brief: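 First, TGR (20 nM dispensed) and NADPH were mixed with compound. Second, a 15 min room-temperature incubation followed. Third, further NADPH and then DTNB were added to start the reaction. Finally, TNB absorbance was monitored kinetically.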
In the case of `CN1CCN(C2=C(Cl)C(=O)N(c3cccc(Cl)c3)C2=O)CC1`, the Potency is reported as inconclusive [inhibitor, partial curve, poor fit]. In the case of `COc1ccc(CN2CCNC(=O)C2CC(=O)N(C)Cc2nonc2C)c(F)c1` (stereo unspecified), the activity change, negative = inhibition is reported as inconclusive: -37.1% [inhibitor]. In the case of `COc1cccc(/C(O)=C2/C(=O)C(=O)N(c3cc(C)on3)C2c2cccs2)c1` (stereo unspecified), the Potency is reported as inconclusive [inhibitor, full curve, poor fit]. In the case of `NC(=O)OCCSc1nnc(-c2cccc(C(N)=S)c2)o1`, the Potency is reported as inconclusive [inhibitor, single point]. With `COc1ccccc1CN(C)S(=O)(=O)c1cccs1` the Potency was “inactive”. For `C/C(=N\NC(=O)COc1ccc(C(C)(C)C)cc1)c1ccc2c(c1)OCCO2`, the Potency was “inactive”. For `Cc1cccn2c(=O)c3cc(C(=O)NCCc4ccccc4)sc3nc12`, the Potency was inconclusive [inhibitor, partial curve]. `CCOC(=O)C1CCN(c2cc3c(cc2NC(=O)c2cc(OC)ccc2Br)n(C)c(=O)n3C)CC1` was tested, and the Potency was “inactive”. In the case of `CCCCc1ccc(C2C(C#N)=C(N)SC(N)=C2C#N)s1`, the Potency is reported as inconclusive [inhibitor, partial curve]. For `CN(C(=O)CSc1nnnn1C)C1(C#N)CCCCC1`, the Potency was inconclusive [inhibitor, single point]. In the case of `COc1ccccc1N1CCN(Cc2cc(Br)c(O)c3ncccc23)CC1`, the Potency is reported as active: 3.16 µM. `CCOC(=O)C1=C(CSc2nc(C)cc(C)c2C#N)OC(N)=C(C#N)C1c1cccs1` (stereo unspecified) was tested, and the Potency was inconclusive [inhibitor, partial curve]. For `COCCn1c(SCC(=O)c2c(C)[nH]c3ccccc23)nc2cc(C(=O)NC(C)C)ccc2c1=O`, the Potency was active: 35.5 µM. In the case of `Cc1ccc(S(=O)(=O)CCC(=O)Nc2ccccc2Cl)cc1`, the Potency is reported as “inactive”. With `COc1ccccc1N1CCN(S(=O)(=O)c2cn(C)nc2C)CC1` the Potency was inconclusive [inhibitor, full curve, poor fit]. In the case of `CCCCn1c(N)c(N(CCOC)C(=O)COC(=O)c2cc(CCC)c(C)s2)c(=O)[nH]c1=O`, the Potency is reported as “inactive”. In the case of `COc1ccc(NC(=O)CSc2nc3[nH]ncc3c(=O)n2-c2ccccc2OC)cc1OC`, the Potency is reported as inconclusive [inhibitor, full curve]. `CC(=O)O[C@]1(C(C)=O)CC[C@H]2[C@@H]3C=C(C)C4=CC(=O)CC[C@@H]4[C@H]3CC[C@@]21C` was tested, and the Potency was inconclusive [inhibitor, partial curve]. For `Cc1cc(C)c(NC(=O)c2cc3c(nc4sccn43)s2)c(C)c1`, the Potency was inconclusive [inhibitor, full curve]. `COc1ccc(-c2ccc(C(c3c(C)[nH][nH]c3=O)c3c(C)[nH][nH]c3=O)o2)c([N+](=O)[O-])c1` was tested, and the Potency was active: 28.2 µM. `NC(=O)N1CCC2(CC1)NC(=O)N(c1ccccc1)N2` was tested, and the Potency was “inactive”. In the case of `O=C(Nc1cccnc1)c1ccc(-c2ccc(Cl)cc2)o1`, the Potency is reported as active: 31.6 µM. `CC(=O)c1ccc(-n2c(SCC(=O)c3c[nH]c4ccccc34)nc3ccccc3c2=O)cc1` was tested, and the Potency was inconclusive [inhibitor, single point]. With `Cc1ccc(Sc2cc(C(=O)NCCCN(C)C)c3ccccc3n2)cc1` the Potency was active: 39.8 µM. For `Cc1ccc(-c2cc(C(=O)NCCCn3ccnc3)c3cc(Br)ccc3n2)o1`, the Potency was active: 1.58 µM. `CCNC(=O)Oc1ccc[nH]c1=O` was tested, and the Potency was inconclusive [inhibitor, partial curve]. For `COc1ccc2c(c1)CCc1c-2nc2ccccc2c1N1CCOCC1`, the Potency was active: 39.8 µM. For `Cc1cccc(NC(=O)c2nc[nH]c2C(=O)N[C@@H](C)C(=O)OC(C)(C)C)c1`, the Potency was inconclusive [inhibitor, partial curve, poor fit]. In the case of `Cc1nc(N2CCCC2)ncc1C(=O)NCc1ccccc1Cl`, the Potency is reported as inconclusive [inhibitor, full curve, poor fit]. `CC1(C)Cc2c(c(=S)nc(-c3ccccc3)n2CCN2CCOCC2)CO1` was tested, and the Potency was inconclusive [inhibitor, single point]. With `OCCC1CN(Cc2cccn2-c2cccnc2)CCN1C1CCCC1` (stereo unspecified) the Potency was inconclusive [inhibitor, partial curve]. For `CS(=O)(=O)Oc1ccc2c(c1)O/C(=C\C=C\c1ccccc1)C2=O`, the Potency was inconclusive [inhibitor, partial curve]. With `COc1ccc(N)cc1-n1c(C)ccc1C` the Potency was active: 15.8 µM. With `Cc1cccc(NC(=O)c2cccc(C(=O)Nc3cccc(C)c3)c2)c1` the Potency was inconclusive [inhibitor, single point]. For `OC(CCN1CCOCC1)(c1ccc(Cl)cc1)C1CCCCC1` (stereo unspecified), the Potency was inconclusive [inhibitor, full curve]. With `COCCn1c(SCC(=O)c2c[nH]c3ccccc23)nc2cc(C(=O)NCC(C)C)ccc2c1=O` the Potency was “inactive”. For `CCn1c(SCC(=O)NC(=O)NCc2ccco2)nc2sc(C)c(C)c2c1=O`, the Potency was inconclusive [inhibitor, partial curve]. For `COc1ccc(NC(=O)C2CC(=O)N(Cc3ccco3)C2)cc1Cl` (stereo unspecified), the Potency was inconclusive [inhibitor, partial curve]. With `Cc1[nH]c2c(C)cccc2c1CCNC(=O)c1cc2ccccc2oc1=O` the Potency was “inactive”. In the case of `COc1ccc(/C=N/NC(=O)c2cc(O)c(O)c(O)c2)cc1Cn1cc([N+](=O)[O-])cn1`, the Potency is reported as inconclusive [inhibitor, partial curve]. In the case of `CCc1ccccc1NC(=O)C(=O)NCCc1sc(-c2cccc(C)c2)nc1C`, the Potency is reported as “inactive”. `CCOCCCN(C(=O)c1snc(C(N)=O)c1N)C(C(=O)NC1CCCC1)c1ccc(O)c(OC)c1` (stereo unspecified) was tested, and the Potency was inconclusive [inhibitor, partial curve]. `O=C(c1ccco1)N1CCN(CC(=O)N2CCCc3c2c(=O)oc2ccc(O)cc32)CC1` was tested, and the Potency was inconclusive [inhibitor, partial curve]. With `COC(=O)c1ccc(NC(=O)c2c(NCc3ccc(OC)c(OC)c3)sc3c2CCCC3)cc1` the Potency was “inactive”. For `CCn1nnnc1NCc1ccc(N2CCCC2)cc1`, the Potency was inconclusive [inhibitor, partial curve]. `Cc1ccc([C@@H]2C3COCC=C3C(C#N)=C(N)C2(C#N)C#N)o1` (stereo partly specified) was tested, and the Potency was active: 35.5 µM. `CCC(C)NC(=O)CS(=O)(=O)Cc1nc(-c2cccc(OC)c2)oc1C` (stereo unspecified) was tested, and the Potency was inconclusive [inhibitor, partial curve]. For `Cc1ccc(S(=O)(=O)N2CCC(C(=O)NCCN3CCCCCC3)CC2)cc1`, the Potency was inconclusive [inhibitor, partial curve]. With `COC(=O)Nc1ccc(S(=O)(=O)Nc2cc(OC)nc(OC)n2)cc1` the Potency was inconclusive [inhibitor, partial curve]. With `CCOCCn1c(CN2CCN(c3ccc(F)cc3)CC2)nc2c1c(=O)n(C)c(=O)n2C` the activity change, negative = inhibition was inactive: 0% [at 11.4 µM]. In the case of `COc1ccc(CN(CCC(c2ccco2)C(C)C)C(C)=O)cc1OC` (stereo unspecified), the Potency is reported as inconclusive [inhibitor, partial curve]. For `Cc1cc(NC(=O)CCl)on1`, the Potency was active: 15.8 µM. With `O=C1CC(NCc2ccncc2)C(=O)N1c1ccccc1` (stereo unspecified) the Potency was inconclusive [inhibitor, full curve, poor fit]. In the case of `CCOc1nc(N(C)C)nc(-n2nnc(C(C)=O)c2C)n1`, the Potency is reported as “inactive”. In the case of `CCCCSc1nnc2nc(C)cc(C)n12`, the Potency is reported as inconclusive [inhibitor, full curve, poor fit]. With `Cc1nc2sc3c(c2c2nnc(SCC(=O)NCc4ccco4)n12)CCCC3` the Potency was inconclusive [inhibitor, partial curve]. In the case of `CN1Cc2c(c(C#N)c(N)n(C)c2=S)CC1(C)C`, the Potency is reported as inconclusive [inhibitor, single point]. `Cc1cc(=O)n(C)c(=O)n1CCCCCCOc1cccc([N+](=O)[O-])c1` was tested, and the Potency was “inactive”. For `CCOC(=O)c1ccc(CSc2ncn[nH]2)o1`, the Potency was inconclusive [inhibitor, full curve]. `CCOc1ccc(-c2nnc(SCC(=O)NCCc3ccccc3)nc2-c2ccc(OCC)c(OC)c2)cc1OC` was tested, and the Potency was “inactive”. In the case of `O=[N+]([O-])c1ccc(N/N=C2/CCCCC2c2ccccn2)cc1` (stereo unspecified), the Potency is reported as inconclusive [inhibitor, partial curve]. For `COc1ccc(S(=O)(=O)N2N=C(c3ccc(NS(C)(=O)=O)cc3)CC2c2ccco2)cc1` (stereo unspecified), the Potency was active: 14.1 µM. For `Cc1ccc(NC(=O)/C=C\C(=O)O)c([N+](=O)[O-])c1`, the Potency was inconclusive [inhibitor, full curve]. `CCOC(=O)c1c(C)[nH]c(C(=O)COC(=O)CCSc2ccccc2)c1C` was tested, and the Potency was “inactive”. With `CCOC(=O)c1sc(NC(=O)Nc2ccccc2F)nc1C` the Potency was “inactive”. In the case of `CCOC(=O)CSc1nnc(CSc2nc(C)cc(C)n2)n1Cc1ccco1`, the Potency is reported as active: 44.7 µM. With `CCC(=O)N1c2ccc(S(=O)(=O)NCc3ccco3)cc2CC1C` (stereo unspecified) the Potency was inconclusive [inhibitor, partial curve]. For `O=S(=O)(NC(=S)NC1CCCCC1)c1ccc(Br)cc1`, the Potency was active: 22.4 µM. For `Cc1[nH]c2ccccc2c1CN1CCc2ccccc2C1`, the Potency was inconclusive [inhibitor, partial curve, poor fit]. `NS(=O)(=O)c1ccc(NC(=S)NC(=O)c2cccc(Br)c2)cc1` was tested, and the Potency was active: 15.8 µM. For `Cc1cccc(N(C(=O)Cn2nnc3ccccc32)C(C(=O)NCc2ccco2)c2ccncc2)c1` (stereo unspecified), the Potency was inconclusive [inhibitor, partial curve].

From PubChem BioAssay AID485364 (National Center for Advancing Translational Sciences (NCATS), 2010)
% is set by controls: 0 for no effect and ±100 for the full control effect; potency is the fitted concentration of half-maximal effect; tags give direction and shape of the fitted curve.
Note: nearly all actives have a fitted effect of over 60% in size.
